# Article PMC12136788
# Some of the results follow.
# T1: UNK ZnF1-3 (human, UniProt Q9C0B0 31-174)
# T1 sequence: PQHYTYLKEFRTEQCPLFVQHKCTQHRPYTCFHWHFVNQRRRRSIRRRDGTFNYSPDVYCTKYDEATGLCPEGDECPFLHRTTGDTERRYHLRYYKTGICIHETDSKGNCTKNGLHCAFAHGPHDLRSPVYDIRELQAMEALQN
# B1: chr4:140556289:140556290:+_ENSMUSG00000036622_ENSMUST00000037055|mus_mus|mus_mus_mus_hu_False|8_18 (ssRNA)
# RNA: GGGAGUUCUACAGUCCGACGAUCGAUGGAGCUCACCAGGCCCCCUUUUGCCGUGCAGAACCCUGUGCGGGUCACCACUGCCAGGACGUGCGGUCCCACAUAGGCCCGGGCCUGCAAAAUGAGGGUGCCACAGAAGAGUGUGUGCAACAGAGGAUUGAGCAUCA
# B2: chr11:5855929:5855930:+_ENSMUSG00000002741_ENSMUST00000002818|mus_hu|FALSE|FALSE (ssRNA)
# RNA: GGGAGUUCUACAGUCCGACGAUCACACAUCGUAUGCGGCUUUGAGCAGCACCACCUUGGCCUCGCCUUUGUAGAGGACGCUGAGGCUGUACAGCUUCAUGGCUCCGCGCCCUCAGGCCGCCCGCCUGCCCAGCUGCGGGACCCCAACAGAGGAUUGAGCAUCA
# B3: chr6:51416999:51417000:-_ENSMUSG00000004980_ENSMUST00000090002|mus_mus|FALSE|FALSE (ssRNA)
# RNA: GGGAGUUCUACAGUCCGACGAUCAUCAAUGGAAUGGGGCCUUGCAGCCAUGGCAGCGUCAACCUCGGCCAUGGAUGAGAAAGUUACAAAGCCAAAUCCUCUUGAUCUUUUGCUUGCAGGAUCCCGCAUAACCACACAGUCUGUCAACAGAGGAUUGAGCAUCA
# B4: chr11:102221366:102221367:+_ENSG00000110330_ENST00000227758|hu_hu|FALSE|FALSE (ssRNA)
# RNA: GGGAGUUCUACAGUCCGACGAUCCCAGUACAUAAAUGUUCUCAUUCGAGCUGCAUGUGUCUGCAUGCUCAGAUUUGAAAUGCUAAACCUCAGAGUUUCUAGAGAAUUUUCCAAAAAUGGACAGUUGGGAAAAUGCCUCCGGUGCAACAGAGGAUUGAGCAUCA
# B5: chr3:176767854:176767855:-_ENSG00000177565_ENST00000430069|hu_hu|hu_hu_hu_mus_False|8_88 (ssRNA)
# RNA: GGGAGUUCUACAGUCCGACGAUCGACAUCCUUGUUACUGGGCACGUCUUGCCCUCCUUCCCGUAUGCAGUGUCUAAGCACGAGCUGCGUAGGGCCACUCGUGCUGUUCUCACUGAGGUUCCAGAUUCUUGCUGUUGAGUCUCCCAACAGAGGAUUGAGCAUCA
# B6: chr1:52766434:52766435:-_ENSMUSG00000041439_ENSMUST00000156876|mus_hu|motif|central (ssRNA)
# RNA: GGGAGUUCUACAGUCCGACGAUCGACCUUGGAAAUUAGAAGAUCGUUGUUUAUCUUAACACAAUGUUUCUCUAUCCAGUCGGUUUCCUCCUCAGGAAUAGCAGAUGUUUCUGUGGAGGAAGGUGUUUCAUUCGAAGGUGGUUCCAACAGAGGAUUGAGCAUCA
# B7: chr18:34792849:34792850:-_ENSMUSG00000024370_ENSMUST00000133181|mus_mus|motif|central (ssRNA)
# RNA: GGGAGUUCUACAGUCCGACGAUCGAUCUAUAGCACCUACUGCACAAGCUCAUUGUAGCAGACAUCAAGUGGCUCUGAAACCGGGAAAAACACAGUGAAUUCUUCAACCUUGUAGAUAAGGUUGAAAACCAAAUUGGAGACUUUCAACAGAGGAUUGAGCAUCA
# B8: chr11:46405157:46405158:+_ENSG00000110492_ENST00000395566|hu_hu|hu_hu_hu_mus_False|1_108 (ssRNA)
# RNA: GGGAGUUCUACAGUCCGACGAUCCCCUUAGGGGUGGGGGCACUUGGUGUGGGCGUGAGAGGACAGGCGUGAUUGACAGAGCUGACAGGAAGACAAAAGGCACUGGUGGGUUAUAUCUUGGGCCUGUGGGAGAGGAGGCGUGGGCAACAGAGGAUUGAGCAUCA
# B9: chr6:38652254:38652255:-_ENSG00000124767_ENST00000373365|hu_hu|hu_hu_hu_mus_False|18_48 (ssRNA)
# RNA: GGGAGUUCUACAGUCCGACGAUCCGAGAACUUCAUAGCAGGGAAGUCAAGCUUCUGCAGGAGGGUCAGUCCAAGAACCCUCGUAUAAAAAUCCAGUGACUUCUUAGGAUCCUUAAUUCGUAGCAUGGUUUGCUGCAGUAGAAACAACAGAGGAUUGAGCAUCA
# B10: chr14:66974463:66974464:+_ENSMUSG00000022044_ENSMUST00000074523|mus_hu|mus_mus_mus_hu_False|88_108 (ssRNA)
# RNA: GGGAGUUCUACAGUCCGACGAUCUUGUAGGAUGAUUUAUUCAGGGGAUCAGACAAGAAGCAGGAGCAGAACAAGGACACCAGCGGGAGCUCCUUCAUCUUCUCUUUGUAGGCAGCAAGGGUCAUGUUUCUGGGAUCUGGUGGCCAACAGAGGAUUGAGCAUCA
# B11: chr11:20101544:20101545:+_ENSMUSG00000020149_ENSMUST00000020358|mus_mus|motif|central (ssRNA)
# RNA: GGGAGUUCUACAGUCCGACGAUCUGACGCAGCCGCCGCCCCAACUCUCCGCGCCACAGGUAAUGGAAAGGGAGGAAUGAGCGGAGCUGUUCCGGUAGAGCAAACGUCGACCCCACUCCGACCCUUAGAACACAAUCAGCAGCCCAACAGAGGAUUGAGCAUCA
# B12: chr2:115689334:115689335:-_ENSMUSG00000027210_ENSMUST00000074285|mus_mus|FALSE|FALSE (ssRNA)
# RNA: GGGAGUUCUACAGUCCGACGAUCGCUCUUUGAAGAACAGUCCCCCAAAAUCAUAAUAAGAAUUGGCUUAUGAAGCACAAACUAUAAAGAUCUGUUUGAAACUAAAGGACACAUGGACGGGGGGAACAAAGGCCGGGCAUGAAACAACAGAGGAUUGAGCAUCA
# B13: chr13:22070289:22070290:-_ENSG00000165487_ENST00000382374|hu_hu|motif|central (ssRNA)
# RNA: GGGAGUUCUACAGUCCGACGAUCAGCAAAGUCUUCCAAGUGGGUUGUAAAAUGGCAAAAUGACUUGAAUUCAUCCAAACGGAUGCUCUCUCCUGCUGACAACUUCUCUCUCACAUUUUUCCAAUAAAUAUCUUUAUUUUCAGUCAACAGAGGAUUGAGCAUCA
# B14: 10258623_10260999_921_CDS_ENSG00000150753_ENST00000503026|human|control|control (ssRNA)
# RNA: GGGAGUUCUACAGUCCGACGAUCGCGAACCGCAGGCAAGUUGUUCUGAAGAAGUAAGUGAUUUGCUUCAUCAUCAAAGCCCCACUGACAAAUUGCUAGGUUAGCACCAGUCUCUUUAAUUUGUUGAAUCAUCUCUUCAAAUUUCAACAGAGGAUUGAGCAUCA
# B15: chr1:224612315:224612316:-_ENSG00000162923_ENST00000295024|hu_hu|motif|central (ssRNA)
# RNA: GGGAGUUCUACAGUCCGACGAUCCGUCAAUUCACAGCGUAGAACUUGAAGUGCCUCCAGGACCUUGCCAUCCUCCAGGUAUUCGGGGUACUUCUGCUGCAGCAGCAAAAACUUCAUCCUCACAAUUAUUCCCAACAACGUUUGCAACAGAGGAUUGAGCAUCA
# B16: chr9:53370893:53370894:+_ENSMUSG00000033054_ENSMUST00000035850|mus_mus|motif|central (ssRNA)
# RNA: GGGAGUUCUACAGUCCGACGAUCCGCUGCAUCAUUAGAGAGCUGUUUAUCUGAAGGGGCUGGUUCUUCAAGAUGAAUUUCGGUUUUCUCAGUCACAUUUACACCCAAACUUUCACCAAUCCCAGGAGGUGGUUUGCUCUGCAGCAACAGAGGAUUGAGCAUCA
# B17: chr12:8716970:8716971:+_ENSMUSG00000020594_ENSMUST00000111122|mus_mus|FALSE|FALSE (ssRNA)
# RNA: GGGAGUUCUACAGUCCGACGAUCUGGAGAAGCCUUGCCUUUUUGAUCUCCUUUCUCAGGUCCAUCUGUUUCAGCAUCUCUAGUACCAAAAGUUCCCUUCCUAAAUCGAGAAUCCAAUUUAUCAGCAGGAGAGGAACUUAAUACCAACAGAGGAUUGAGCAUCA
# B18: 118652278_118652398_1266_3pUTR_ENSMUSG00000020114_ENSMUST00000020315|mouse|control|control (ssRNA)
# RNA: GGGAGUUCUACAGUCCGACGAUCCGUCAGCAUCCAUAGCAUUCUCAUCUUCAUCUUCAUCAUCGUAAUUGUAAUUUGGAUCAUAGGUAAGGUAUUUUAGACAAAUGUUUAUAAUGGUAGAAACAUGAGGAUAAACUUCUUUAGCAACAGAGGAUUGAGCAUCA
# B19: chr3:53254358:53254359:-_ENSMUSG00000042997_ENSMUST00000130348|mus_mus|motif|central (ssRNA)
# RNA: GGGAGUUCUACAGUCCGACGAUCCAGAAGUCAAAAUCCCAGCACAGAGCAGGGAGGGGCUCAUGAAGCCUACCACGAACGGAGAAGCUACUGGAGGUAGCUGUGGGGGACCUUUCCUAAAAGGUGACCCUGCUUCGAGGAGUGCAACAGAGGAUUGAGCAUCA
# B20: chr1:53517203:53517204:+_ENSG00000116171_ENST00000408941|hu_hu|motif|central (ssRNA)
# RNA: GGGAGUUCUACAGUCCGACGAUCAGAAAAAGUUAUUUUAAUUUUCUAUUAAACAUUCUUCUCAAAGCAUUAUUUUAUCCGGUAUCUCACUGAAUUUUAAGAAAUAACAUUAGUAUUAGAAAAACUAGGAAAAAAGAUAAAUGCCAACAGAGGAUUGAGCAUCA
# B21: chr11:22897662:22897663:+_ENSMUSG00000007739_ENSMUST00000173867|mus_mus|motif|central (ssRNA)
# RNA: GGGAGUUCUACAGUCCGACGAUCGCAAAACUGAAUAAGCCCAAUCUUAGCCUUUUCAACUCUUGUUAUGCCAGAAUUUGCGGCUUUCUGUGUGAGAACGAGGCCUUCCACCAGCUCACAGUCAUCUAUUGUCCCACCAAGCUUCAACAGAGGAUUGAGCAUCA
# B22: chr18:9859796:9859797:+_ENSG00000168461_ENST00000578921|hu_hu|motif|central (ssRNA)
# RNA: GGGAGUUCUACAGUCCGACGAUCCAUUGACACUUCUCUGAUUUCCUCCAAAAAGUAAUAAAUAAAGGCUUACUUCCAAAGCGGGCGGAAAACUAACCUCCUGAACUAAAUUUGCCUUUCAGUGAAGGUUGGUUAGGUAACAAACAACAGAGGAUUGAGCAUCA
# Target: T1, UNK ZnF1-3
# Assay: nsRBNS (natural sequence RNA bind-n-seq); RBNS binding buffer (assumed for nsRBNS): 25 mM Tris pH 7.5, 150 mM KCl, 3 mM MgCl2, 0.01% Triton X-100, 500 ug/ml BSA, 20 U/ml SUPERase-In, 4 C; UNK is unkempt and MSI1 is Musashi-1; names of the RNAs are library labels; protein concentration not given here; high values mean tight binding
row,Binder,binding signal [enrichment R]
1,B1,0.666
2,B2,1.04
3,B3,0.857
4,B4,0.712
5,B5,0.388
6,B6,0.446
7,B7,1.87
8,B8,2.91
9,B9,0.685
10,B10,2.29
11,B11,1.56
12,B12,2.13
13,B13,1.95
14,B14,1.01
15,B15,0.8
16,B16,0.999
17,B17,0.913
18,B18,1.05
19,B19,1.17
20,B20,1.35
21,B21,0.868
22,B22,1.32
